Measured values published in patent US7002001.

Assays:
[1] = molecular target: E1Q2 mutant C3 (Arg1303 changed to Glu, plus Arg1320 changed to Gln)
[2] = molecular target: RY-1 mutant C3 (R1427Q, K1431D, E1433Q)
[3] = molecular target: mutant C3M-26 (Arg1303->Gln, Arg1320->Gln)
[4] = molecular target: mutant C3M-I23 (Arg1303->Gln)
[5] = molecular target: wild-type human C3 (expressed from the PC3 coding sequence)
wild-type human C3 (expressed from the PC3 coding sequence), sequence (chain, as listed by the source, chain 1 of 2): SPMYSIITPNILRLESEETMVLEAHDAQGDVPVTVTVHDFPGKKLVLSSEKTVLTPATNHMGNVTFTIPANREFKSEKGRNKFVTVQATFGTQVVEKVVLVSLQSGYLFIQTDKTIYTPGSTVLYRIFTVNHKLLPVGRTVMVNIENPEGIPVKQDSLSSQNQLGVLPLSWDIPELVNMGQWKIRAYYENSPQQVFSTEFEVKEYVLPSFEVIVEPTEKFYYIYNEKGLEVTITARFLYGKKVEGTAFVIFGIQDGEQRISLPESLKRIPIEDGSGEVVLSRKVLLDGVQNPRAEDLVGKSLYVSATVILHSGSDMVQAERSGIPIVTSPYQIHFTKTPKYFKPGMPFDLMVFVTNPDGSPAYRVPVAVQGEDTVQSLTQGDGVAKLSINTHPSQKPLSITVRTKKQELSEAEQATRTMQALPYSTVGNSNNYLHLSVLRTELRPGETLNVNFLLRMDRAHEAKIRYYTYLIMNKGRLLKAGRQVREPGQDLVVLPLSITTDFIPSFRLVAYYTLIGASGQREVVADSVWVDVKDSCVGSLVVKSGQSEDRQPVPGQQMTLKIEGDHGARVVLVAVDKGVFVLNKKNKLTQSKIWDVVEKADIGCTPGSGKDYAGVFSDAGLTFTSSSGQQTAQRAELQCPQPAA
wild-type human C3 (expressed from the PC3 coding sequence), sequence (chain, as listed by the source, chain 2 of 2): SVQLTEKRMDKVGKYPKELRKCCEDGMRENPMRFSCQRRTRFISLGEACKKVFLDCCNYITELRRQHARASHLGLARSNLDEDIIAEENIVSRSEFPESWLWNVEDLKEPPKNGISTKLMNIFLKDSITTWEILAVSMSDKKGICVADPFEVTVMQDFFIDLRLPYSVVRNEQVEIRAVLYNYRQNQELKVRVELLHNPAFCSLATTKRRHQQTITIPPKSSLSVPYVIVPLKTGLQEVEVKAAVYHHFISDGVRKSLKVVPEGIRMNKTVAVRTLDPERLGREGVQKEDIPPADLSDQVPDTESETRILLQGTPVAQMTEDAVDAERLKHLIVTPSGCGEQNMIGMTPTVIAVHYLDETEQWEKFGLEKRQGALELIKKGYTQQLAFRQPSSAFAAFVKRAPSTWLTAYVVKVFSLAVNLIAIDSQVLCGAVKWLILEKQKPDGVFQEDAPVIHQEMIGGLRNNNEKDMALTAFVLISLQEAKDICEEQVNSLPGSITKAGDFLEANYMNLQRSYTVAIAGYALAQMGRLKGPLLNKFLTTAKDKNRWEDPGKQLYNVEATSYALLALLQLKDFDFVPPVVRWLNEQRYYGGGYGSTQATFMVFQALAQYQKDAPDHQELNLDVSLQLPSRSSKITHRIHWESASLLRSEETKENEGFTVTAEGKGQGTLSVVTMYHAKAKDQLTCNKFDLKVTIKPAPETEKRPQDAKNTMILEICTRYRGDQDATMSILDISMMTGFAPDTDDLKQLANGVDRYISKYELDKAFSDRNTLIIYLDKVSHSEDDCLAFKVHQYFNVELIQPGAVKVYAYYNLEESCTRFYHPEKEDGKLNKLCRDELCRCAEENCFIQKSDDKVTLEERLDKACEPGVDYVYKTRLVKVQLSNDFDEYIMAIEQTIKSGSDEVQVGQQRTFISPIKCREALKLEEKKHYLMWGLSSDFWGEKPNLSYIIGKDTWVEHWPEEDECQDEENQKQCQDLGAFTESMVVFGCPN

mutant C3M-26 (Arg1303->Gln, Arg1320->Gln), sequence (chain, as listed by the source, stated change not applied, chain 1 of 2): as the sequence (chain, as listed by the source, chain 1 of 2) above
mutant C3M-26 (Arg1303->Gln, Arg1320->Gln), sequence (chain, as listed by the source, stated change not applied, chain 2 of 2): as the sequence (chain, as listed by the source, chain 2 of 2) above, with R632Q, R649Q counted along it
E1Q2 mutant C3 (Arg1303 changed to Glu, plus Arg1320 changed to Gln), sequence (chain, as listed by the source mutant, chain 1 of 2): as the sequence (chain, as listed by the source, chain 1 of 2) above
E1Q2 mutant C3 (Arg1303 changed to Glu, plus Arg1320 changed to Gln), sequence (chain, as listed by the source mutant, chain 2 of 2): as the sequence (chain, as listed by the source, chain 2 of 2) above, with R632E, R649Q counted along it
mutant C3M-I23 (Arg1303->Gln), sequence (chain, as listed by the source, stated change not applied, chain 1 of 2): as the sequence (chain, as listed by the source, chain 1 of 2) above
mutant C3M-I23 (Arg1303->Gln), sequence (chain, as listed by the source, stated change not applied, chain 2 of 2): as the sequence (chain, as listed by the source, chain 2 of 2) above, with R632Q counted along it
RY-1 mutant C3 (R1427Q, K1431D, E1433Q), sequence (chain, as listed by the source R1427Q K1431D E1433Q, chain 1 of 2): as the sequence (chain, as listed by the source, chain 1 of 2) above
RY-1 mutant C3 (R1427Q, K1431D, E1433Q), sequence (chain, as listed by the source R1427Q K1431D E1433Q, chain 2 of 2): as the sequence (chain, as listed by the source, chain 2 of 2) above, with R756Q, K760D, E762Q counted along it

B1: factor B (protein)
chain: TPWSLARPQGSCSLEGVEIKGGSFRLLQEGQALEYVCPSGFYPYPVQTRTCRSTGSWSTLKTQDQKTVRKAECRAIHCPRPHDFENGEYWPRSPYYNVSDEISFHCYDGYTLRGSANRTCQVNGRWSGQTAICDNGAGYCSNPGIPIGTRKVGSQYRLEDSVTYHCSRGLTLRGSQRRTCQEGGSWSGTEPSCQDSFMYDTPQEVAEAFLSSLTETIEGVDAEDGHGPGEQQKRKIVLDPSGSMNIYLVLDGSDSIGASNFTGAKKCLVNLIEKVASYGVKPRYGLVTYATYPKIWVKVSEADSSNADWVTKQLNEINYEDHKLKSGTNTKKALQAVYSMMSWPDDVPPEGWNRTRHVIILMTDGLHNMGGDPITVIDEIRDLLYIGKDRKNPREDYLDVYVFGVGPLVNQVNINALASKKDNEQHVFKVKDMENLEDVFYQMIDESQSLSLCGMVWEHRKGTDYHKQPWQAKISVIRPSKGHESCMGAVVSEYFVLTAAHCFTVDDKEHSIKVSVGGEKRDLEIEVVLFHPNYNINGKKEAGIPEFYDYDVALIKLKNKLKYGQTIRPICLPCTEGTTRALRLPPTTTCQQQKEELLPAQDIKALFVSEEEKKLTRKEVYIKNGDKKGSCERDAQYAPGYDKVKDISEVVTPRFLCTGGVSPYADPNTCRGDSGGPLIVHKRSRFIQVGVISWGVVDVCKNQKRQKQVPAHARDFHINLFQVLPWLKEKLQDEDLGFL
[1]
  degree of factor B cleavage (125I-factor B in normal human serum, 1 h 37° C., background subtracted): 6.42%
[2]
  cleavage of 125I-labelled factor B by factor D in the presence of C3i (SDS-PAGE, autoradiography): no significant cleavage was observed in the presence of the mutant C3, even undiluted
[3]
  degree of factor B cleavage (125I-factor B in normal human serum, 1 h 37° C., background subtracted): 7.41%
[4]
  degree of factor B cleavage (125I-factor B in normal human serum, 1 h 37° C., background subtracted): 6.19%
[5]
  cleavage of 125I-labelled factor B by factor D in the presence of C3i (SDS-PAGE, autoradiography): distinct cleavage of factor B occurs even at a 1/125 dilution of the wild-type C3 (C3i)
  degree of factor B cleavage (125I-factor B in normal human serum, 1 h 37° C., background subtracted); 1/5 Wild-type: 2.74%
  degree of factor B cleavage (125I-factor B in normal human serum, 1 h 37° C., background subtracted); 1/25 Wild-type: 1.49%
